These results are taken from publication PMC10510377 (Journal of Medicinal Chemistry, 2023).

Series [1] can be described thus: In vivo metabolism of the tracer in blood plasma (SPE and radio-HPLC). The note with it: 60 min p.i., female nu/nu mice, i.v. tracer. Here is the method: At 60 min p.i., 87 ± 8% of the circulating radioactivity in blood plasma was intact tracer, while 9 ± 1% was polar metabolites and 4 ± 7% was apolar metabolites (Figure 1).
Part of the blood (0.6–1 mL) collected via heart puncture in the biodistribution evaluation was used for the metabolic stability study. Centrifugation (4000 rpm for 5 min) separated the plasma from the blood cells. The sample was diluted with 0.15 M hydrochloric acid (2 mL) before loading onto an activated tC2 solid-phase extraction (SPE) cartridge. The filtrate and any remaining polar metabolites washed off the cartridge with water were collected and defined as the “polar” fraction. The apolar fraction was collected by eluting the cartridge with a mixture of methanol and water. An SPE extraction efficiency of 94 ± 2% was achieved. The collected fractions were counted for radioactivity in a Wizard gammacounter 2480 (Wallac/PerkinElmer, Waltham, MA, USA). The percentage of intact tracer was determined by semi-preparative radio-HPLC on a Dionex Ultimate 3000 system using a Phenomenex Gemini (250 × 10 mm, 5 μm) HPLC column and a gradient of 0 to 40% acetonitrile in water, both containing trifluoroacetic acid (0.1%), in 12 min at 3 mL·min^–1. Fractions of 30 s were collected and counted for radioactivity in a Wizard gammacounter 1470 (Wallac/PerkinElmer, Waltham, MA, USA).

Series [2] deals with A549 xenografts (wild-type EGFR/ALK). Conditions: A549 xenograft, ex vivo biodistribution, 60 min p.i.
The conditions of series [3]: A549 tumor-bearing mice, 5, 30, 60 min p.i.
Series [4] in a line: Stability of the tracer in HPLC eluent and in the formulation. In kind it is physicochemical. An excerpt: N-Desmethyl brigatinib was radiolabeled using [^11C]methyl iodide without the addition of a base. By adding a protic solvent, the formation of an unknown byproduct could be suppressed while product formation was promoted. The side product-to-product ratio in dimethyl sulfoxide could almost completely be suppressed with the addition of ethanol, as is exemplified in the Supporting Information (Figure S1). […] The product was purified by semi-preparative HPLC, followed by reformulation in saline with 10% ethanol.

In series [5] the test system is HCC827 xenografts (EGFR Del19 mutated). The series is described as follows: Ex vivo biodistribution, tumor uptake in HCC827 xenografts. The note with it: HCC827 xenograft, 60 min p.i.
The subject of series [6] is H2228 xenografts (endogenous EML4–ALK). The note with it: H2228 xenograft, ex vivo biodistribution, 60 min p.i.
On the set-up of series [7]: method as in ref 16, 18 = [16]; Food and Drug Administration (FDA) . Highlights of Prescribing Information—Alunbrig . 2017 , https://www.accessdata.fda.gov/drugsatfda_docs/label/2017/208772lbl.pdf (accessed April 21, 2021). || [18]; European Medicines Agency . Procedure No. EMEA/H/C/004248/0000—Assessment Report—Alunbrig . https://www.ema.europa.eu/en/documents/assessment-report/alunbrig-epar-public-assessment-report_en.pdf (acce). The note with it: orally administrated [^14C]brigatinib; cited from earlier work.

Details of series [8]: method as in ref 16, 18 = [16]; Food and Drug Administration (FDA) . Highlights of Prescribing Information—Alunbrig . 2017 , https://www.accessdata.fda.gov/drugsatfda_docs/label/2017/208772lbl.pdf (accessed April 21, 2021). || [18]; European Medicines Agency . Procedure No. EMEA/H/C/004248/0000—Assessment Report—Alunbrig . https://www.ema.europa.eu/en/documents/assessment-report/alunbrig-epar-public-assessment-report_en.pdf (acce). Conditions: cited from earlier work.

For a further series, the system named is H2228. Further details: method as in PMID 27780853. Conditions: cited from earlier work.
A further series has as its system CYP2C8 and CYP3A4. Conditions: reported; cited from earlier work.
The subject of series [9] is ALK phosphorylation in H2228 cells. The note with it: read-out: cellular ALK phosphorylation IC50; cited from earlier work.
For series [10], the system named is HCC827 (del19 mutated EGFR). Further details: method as in ref 21 = [21]; Center for Drug Evaluation and Research . Multi-Discipline Review; Application Number: 208772Orig1s000, 2016 . Conditions: cited from earlier work.
A further series concerns EML4–ALK fusion-A549. Further details: method as in ref 19 = [19]; Enuameh M. S.; Volpe L.-A.; Jackson M.; Foulke J.; Chen L.; Shapiro B. A.; Tian F. Developing isogenic cell models with CRISPR: an EML4-ALK fusion NSCLC cell line . https://www.nature.com/articl. Conditions: read-out: IC50, cell survival; cited from earlier work.

Several values for one entry are separate records, joined by “and”; a condition that tells them apart may be missing. Identical values can stand only once.

On to `COc1cc(N2CCC(N3CCN([11CH3])CC3)CC2)ccc1Nc1ncc(Cl)c(Nc2ccccc2P(C)(C)=O)n1`, for which the “intact tracer, share of circulating radioactivity in blood plasma” value in [1] was 87 ± 8% and 87%. The tumor uptake is 1.40 ± 0.22 % ID/g in series [2], 1.66 ± 0.17 % ID/g in series [5] and 2.65 ± 0.79 %ID/g in [6]. Moreover, in [3], the “radioactive concentration in the brain” value is on record as “very low”. Also, the “stability of pure HPLC product fraction in eluent” value in series [4] (acidic solutions (eluent with trifluoroacetic acid), over time) is listed as “degradation of the product in acidic solutions over time”. In series [4] (saline with 10% ethanol), the “stability of formulated product” value is reported as “remained stable”.

On to `COc1cc(N2CCC(N3CCNCC3)CC2)ccc1Nc1ncc(Cl)c(Nc2ccccc2P(C)(C)=O)n1` [N-Desmethyl brigatinib, N-Desmethyl Brigatinib], for which the “share of the circulating activity” value in series [7] was 3.5%. In addition, the “potency relative to brigatinib (fold less potent)” value in [8] is reported as “approximately 3 fold”.

On to `COc1cc(N2CCC(N3CCN(C)CC3)CC2)ccc1Nc1ncc(Cl)c(Nc2ccccc2P(C)(C)=O)n1` [brigatinib, Brigatinib], for which, in [7], the “share of the circulating activity” value is 92%. In addition, the GI50 was 10.1 nM in the series with H2228 and 163 nM in series [10]. Moreover, in the series on CYP2C8 and CYP3A4, the metabolizing enzymes entry is “primarily metabolized by CYP2C8 and CYP3A4”. For the same molecule, the half-maximal inhibitory concentration (IC50) in series [9] is 4.5 ± 2.2 nM.

Turning to `Cc1cc(Nc2ncc(Cl)c(Nc3ccccc3S(=O)(=O)C(C)C)n2)c(OC(C)C)cc1C1CCNCC1` [ceritinib], the IC50 with EML4–ALK fusion-A549 was 6000 nM.

What is called GI50 is the concentration at which growth is held to half of that of the control. Broadly, the IC50 is the concentration that inhibits the measured activity by half.
